# Laboratory results: PubChem BioAssay (NCI)
# Values joined by “and” are separate entries in the source; they are usually repeats but may differ in a detail not shown here. Equal entries are not always repeated.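 Briefly, cells in 96-well plates were exposed to five compound concentrations for 48 h, and endpoints were estimated by linear interpolation. At the GI50, growth is halved. At the TGI there is no net growth.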
# Tested on: NCI-H322M lung
# Experiment: NCI anticancer screen, dose series, 48 h
SMILES,TGI,GI50
COC(=O)/C=C1/CCC(C)(C(=O)NS(=O)(=O)c2ccc(C)cc2)C1(C)C (stereo unspecified),> 100 µM,–
CC(=O)Oc1ccccc1/C=C/C(=O)/C=C/c1ccccc1OC(C)=O,5.56 µM,–
O=[N+]([O-])c1ccccc1N/N=C\c1c[nH]c2ccccc12,> 100 µM,19.6 µM
COc1cc(OC)c(/C=C\c2cc(/C=C/c3c(OC)cc(OC)cc3OC)c3ccccc3[n+]2C)c(OC)c1,22.6 µM,–
COC(=O)[C@@H]1CN(C(C)=O)C(=O)N1C(=O)OCc1ccccc1,> 100 µM,–
COc1ccc2c(c1)[nH]c(=O)c1c3cc(OC)ccc3cn21,2.11 µM,0.178 µM
CCN1C(=O)N(CC)C2Nn3c(s/c(=C\c4ccccc4Br)c3=O)=NC21 (stereo unspecified),> 100 µM,3.71 µM
CC(C)NC(=O)OCc1c(COC(=O)NC(C)C)c(-c2cc[n+](COC(=O)C(C)(C)C)cc2)n2c1CCC2,> 100 µM,–
CN(NC(=O)c1cccs1)C1=NCCCCN1,> 100 µM,–
C[C@H](Nc1ncnc2nc[nH]c12)c1cc2ccc(F)cc2nc1-c1ccccn1,> 100 µM,59 µM
CC1SC2=NC3=C(c4ccccc4C3=O)C(c3ccc(Cl)cc3)N2C1=O (stereo unspecified),> 100 µM,–
COc1ccc2cc(C(=O)O)ccc2c1OC,> 100 µM,–
CC(C)(C)Nc1noc(=O)n1C(C)(C)C,> 100 µM,–
Cc1ccc(NC(=O)C(=O)C(C#N)c2nc(-c3ccc(-c4ccccc4)cc3)cs2)c(C)c1 (stereo unspecified),> 100 µM,–
CC(=O)Nc1cc(N(CCOS(C)(=O)=O)CCOS(C)(=O)=O)ccc1N=O,> 100 µM,–
O=C1c2ccccc2S(=O)(=O)N1CSC(=S)N1CCCCC1,> 100 µM,> 100 µM
CNC(=O)SCC(N)C(=O)O (stereo unspecified),> 100 µM,–
Cl.Fc1c[c-]c(-c2ccccn2)c(F)c1.[Pt].c1ccc(P(c2ccccc2)C([PH+](c2ccccc2)c2ccccc2)[PH+](c2ccccc2)c2ccccc2)cc1,17.2 µM,3.32 µM
CNCc1cc(OC)ccc1-c1ccc(OC)c(OC)c1OC,> 100 µM,–
COC(=O)c1c(O)ccc2c1c1c(n2Cc2ccc(Cl)cc2Cl)C(=O)c2ccccc2C1=O,27.8 µM,–
CC1(C)CCC2=C(O1)c1ccccc1C(=O)C2=O,3.07 µM and 2.39 µM,1.69 µM
CN(C)S(=O)(=O)/N=C/c1cccc(/C=N/S(=O)(=O)N(C)C)c1,> 100 µM,–
CC(C)(C)OC(=O)NCCc1cccc2c1oc1c(CCC(=O)O)cccc12,> 100 µM,–
CCCCCCCCN(CCCCCCCC)CCCCCCNc1cc(OC)cc2cccnc12,30.3 µM,14.8 µM

SMILES,TGI,GI50
COc1ccc(OCc2ccc3nc(-c4ccccc4)c(Cl)nc3c2)cc1,> 100 µM,–
Nc1nc(OCc2cc(Br)cs2)c2[nH]cnc2n1,> 100 µM,20.5 µM
CCN(CC)CCNC(=O)c1cc2cc(NC(=O)c3cc4cc(NC(=O)c5cc6cc(N)ccc6[nH]5)ccc4[nH]3)ccc2[nH]1,> 100 µM,–
CCCCCCCCCCCCCC(=O)OCC1OC(n2cc(F)c(=O)[nH]c2=O)C(NC(=O)OCc2ccccc2)C(OC(=O)CCCCCCCCCCCCC)C1O (stereo unspecified),> 100 µM,–
O=C1CCC2CC(C(=O)c3ccccc3)CCC2CN1 (stereo unspecified) (tested in a mixture with another compound),> 100 µM,–
CC1COc2c(N3CCN(C)CC3)c(F)cc3c(=O)c(C(=O)O)cn1c23 (stereo unspecified),> 100 µM,> 100 µM
Clc1ccc2c(c1)N(c1ncnc3ccc(-c4cnc5[nH]ccc5c4)cc13)CC2,35.4 µM,5.32 µM
CCC[C@H](NS(=O)c1ccc(C)cc1)C(C(=O)OCC)=C(c1ccccc1)c1ccccc1 (stereo partly specified),53.5 µM,–
COc1ccc(C(CC(=O)C(C)(C)CN2CCCCC2)SCCS(=O)(=O)O)cc1 (stereo unspecified),> 100 µM,–
CC(SC(=S)N1CCOCC1)C(=O)Nc1nnc(-c2ccccc2)o1 (stereo unspecified),> 100 µM,–
COC(=O)C(=O)C(C(=O)C(=O)Nc1nc2ccc(C)cc2s1)c1nc2ccc([N+](=O)[O-])cc2[nH]c1=O (stereo unspecified),> 100 µM,–
COc1ccc(C(SCC(N)C(=O)O)(c2ccccc2)c2ccccc2)cc1 (stereo unspecified),> 100 µM,0.279 µM
CC(=O)CSc1c(-c2ccccc2)c(=O)n(-c2ccccc2)c(=S)n1-c1ccccc1,> 100 µM,–
CC(=O)c1cc(C(=O)c2ccc3c(c2)Sc2ccccc2N3)c2c(C)cc(C)cn12,> 100 µM,0.615 µM
O=C1C(=O)c2c(nc3ccc(Br)cn23)-c2ccccc21,3.17 µM,1.77 µM
O=C(O)C[C@H]1CCCCC12CCOC2=O (stereo partly specified),> 100 µM,–
COc1cc(C2C(C#N)=C(N)OC3=C2CCS(=O)(=O)c2ccc(C)cc23)cc(OC)c1OC (stereo unspecified),> 100 µM,–
Cc1cccc2c1N(C(=O)/C=C\C(=O)O)C(c1c(C)[nH]c3ccccc13)C2 (stereo unspecified),> 100 µM,–
C/C(=C\CCc1ccoc1)CC/C=C(\C)CCCN1CCOCC1,26.7 µM,12.9 µM
c1cc2[nH]ncc2cc1-c1nc2ccc3[nH]ncc3c2c2c1CCCC2,8.53 µM,1.19 µM
N#C/C(C(=O)Nc1ccc(Cl)cc1)=C(/N)N1CCCCC1,> 100 µM,–
N/N=C(\C(=O)Nc1ccc(Cl)cc1Cl)C(c1cnc2ccccc2n1)[N+](=O)[O-] (stereo unspecified),> 100 µM,–
N#Cc1c2c(c(N=P(c3ccccc3)(c3ccccc3)c3ccccc3)n3c1nc1ccccc13)CCCC2,> 100 µM,–
c1ccc([P+](Cc2ccccc2C[P+](c2ccccc2)(c2ccccc2)c2ccccc2)(c2ccccc2)c2ccccc2)cc1,> 100 µM,–

SMILES,TGI,GI50
COC1CCN(C(=O)c2cc(Cc3n[nH]c(=O)c4ccccc34)ccc2F)CC1,> 100 µM,> 100 µM
CC(=O)c1ccc(OCC(O)CO)cc1 (stereo unspecified),> 100 µM,–
CC1C[C@H](C)CC(C(O)CC2CC(=O)N(Cc3ccccc3)C(=O)C2)C1O (stereo partly specified),> 100 µM,–
O=P1(Oc2ccccc2)N(CCCl)CCN1c1ccccc1 (stereo unspecified),> 100 µM,–
O=C1c2nsnc2C(=O)c2c(F)c(F)c(F)c(F)c21,8.19 µM,2.97 µM
CC(=O)NC(CCC(=O)C=[N+]=N)C(=O)O (stereo unspecified),> 100 µM,–
CC(=O)OC1CCCn2c1nc1c2C(=O)C(C)=C(N2CC2)C1=O (stereo unspecified),2.37 µM,–
C=C(C)[C@@H]1CC[C@]2(C(=O)O)CC[C@]3(C)[C@H](CC[C@@H]4[C@@]5(C)C[C@@H](CC#Cc6ccc(C(F)(F)F)cc6)[C@H](O)C(C)(C)[C@@H]5CC[C@]43C)[C@@H]12,> 100 µM,4.38 µM
Cc1ccc(N=Nc2ccc(O)c(CN(C)C)c2)cc1,> 100 µM,–
CC1(C)C(O)C[C@@H](O)[C@@]2(C)C1CC[C@]1(C)C2C[C@@H](O)[C@@H]2C([C@@]3(C)CC[C@@H](C(C)(C)O)O3)CCC21C (stereo partly specified),39.2 µM,–
CC(NC(=O)c1ccccc1)NC(=O)C(C)C(=O)Nc1ccccc1 (stereo unspecified),> 100 µM,–
O=C(/C(=C\c1ccc([N+](=O)[O-])cc1)S(=O)Cc1ccc(F)cc1)c1ccc(F)cc1 (stereo unspecified),6.79 µM,2.29 µM
O=c1ccn(C2OC(CO)C(O)C2[Se]c2ccccc2)c(=O)[nH]1 (stereo unspecified),> 100 µM,–
N#Cc1ccccc1NC(=O)C(=O)c1c(O)c2ccccc2oc1=O,> 100 µM,–
CN(C)c1ccc(N=C2C=CC(=[N+](C)C)C=C2)cc1,> 100 µM,21.1 µM
CN(C)CCNC(=O)C(C)(C)Oc1ccc(C(=O)c2ccc(Cl)cc2)cc1Cl,24.3 µM,–
CC(/C(=N\Nc1ccccc1)c1ccc(O)cc1)C1C(=O)Oc2ccccc21 (stereo unspecified),> 100 µM,–
CC1=CC(=C(c2ccc(N)cc2)c2ccc(N)cc2)C=CC1=N,11.8 µM and 62.6 µM and 10.2 µM,0.953 µM and 3.59 µM
CO/N=C(\C(=O)N(C)n1cnnc1)c1csc(NC(c2ccccc2)(c2ccccc2)c2ccccc2)n1,> 10 µM,–
O=c1oc2ccccc2c(O)c1/C=N/C(=S)NCCc1ccccc1,> 100 µM,–
O=S(=O)(O)c1ccc(N=Nc2c(O)ccc3cc(Br)ccc23)cc1,> 100 µM,–
S=C1CC(c2ccccc2)Sc2ccccc2N1 (stereo unspecified),> 100 µM,–
NCCN1C(=O)CN=C(c2ccc(Cl)cc2)c2cc(Cl)ccc21,36.3 µM,–
Cn1cc(C2=C(c3cn(C)c4c([N+](=O)[O-])cccc34)C(=O)NC2=O)c2ccccc21,> 25 µM,> 25 µM

SMILES,TGI,GI50
Cc1ncc2c(=O)c3c(oc2n1)c1ccccc1n3Cc1ccccc1,> 100 µM,–
OC1CCOc2ccccc21 (stereo unspecified),> 100 µM,–
CN(Cc1cc(Br)cc(Br)c1O)Cc1cc(Br)cc(Br)c1O,19.1 µM,1.15 µM
C[C@]12CC/C(=N\O)C=C1CC[C@@H]1[C@@H]2CC[C@]2(C)C(=N/O)/C(=C/c3ccc([N+](=O)[O-])cc3)C[C@@H]12,65.1 µM,–
CC1=CC[C@@]2(CO)[C@@H]([C@@H]1C)[C@H]1CC[C@@H]3[C@@]4(C)CC[C@H](O)C(C)(C)[C@@H]4CC[C@@]3(C)[C@]1(C)C[C@@H]2O,> 100 µM,–
NC(N)=N/N=C/c1c(-c2cc(Cl)sc2Cl)nc2sccn12,2.65 µM,1 µM
O=C(O)CCc1ccc2c(c1)C(=O)CC2,> 100 µM,–
O=C(N/N=C/c1cc(Cl)cc(Cl)c1[O-])c1ccccc1O.O=C(N/N=C/c1cc(Cl)cc(Cl)c1[O-])c1ccccc1O.[Zn+2],14.8 µM,0.955 µM
Cc1cc2c(cc1C)[n+](=O)c(C(=O)C/C(=N/OCCCc1ccccc1)C(=O)Nc1cc(Cl)ccc1Cl)c(C)n2[O-],> 100 µM,–
CC(=O)NC(c1nc2cc(C)c(C)cc2[nH]1)c1nc2cc(C)c(C)cc2[nH]1,> 100 µM,–
NNC(=O)CNC(=O)c1ccc(Cl)cc1Cl,> 100 µM,–
O=C(CN(/C=C/C(=O)C(F)(F)F)c1ccc(Cl)cc1)c1ccccc1,42.6 µM,15.2 µM
CCCCCCCCOCC(O)COC(=O)CCCCCCC (stereo unspecified),> 100 µM,–
COc1cc2cccc(N)c2cc1OC,> 100 µM,–
c1ccc(CNCCCCNCCCNCc2ccccc2)cc1,50 µM,–
COC(CC1(/C=C/O[Si](C(C)C)(C(C)C)C(C)C)C(=O)N(C)c2ccccc21)OC (stereo unspecified),> 100 µM,–
CN(N)c1cc(=O)[nH]c(=O)[nH]1,> 100 µM,–
Cc1ccc(-c2cc3c(SCC(=O)Nc4cc(C(F)(F)F)ccc4Cl)nccn3n2)cc1,> 100 µM,> 100 µM
NC1CCC(Nc2nc(NCc3ccc(-c4cccs4)nc3)c3ncn(C4CCCC4)c3n2)CC1 (stereo unspecified),3.03 µM,0.0414 µM
O=C1NC(=O)C2(CCCCCC2)N1,> 100 µM,–
CCC(=O)c1ccc2[nH]c3c(C)c4c(=O)cc(C)[nH]c4c(C)c3c2c1,> 100 µM,–
CC(=O)Nc1ccc2[nH]c(-c3cccc(Cl)c3)cc(=O)c2c1,> 100 µM,–
N#Cc1c(N)[nH]c(=S)c(C#N)c1-c1ccccc1,> 100 µM,–
Nc1nc2c(s1)CCc1c-2c(Br)n(Cc2ccccc2)c1Br,47.3 µM,19.1 µM
